The source of these data is PMC4336329 (PLoS ONE, 2015).

Hit rate of the full screen: of about 310,000 compounds, about 2,200 (0.71%) showed an effect of 50% or more. The effect is printed as a negative number. The list shows a part of the results.

Sequence of human ether-à-go-go-related gene (hERG) potassium channel (Q12809 whole entry, looked up): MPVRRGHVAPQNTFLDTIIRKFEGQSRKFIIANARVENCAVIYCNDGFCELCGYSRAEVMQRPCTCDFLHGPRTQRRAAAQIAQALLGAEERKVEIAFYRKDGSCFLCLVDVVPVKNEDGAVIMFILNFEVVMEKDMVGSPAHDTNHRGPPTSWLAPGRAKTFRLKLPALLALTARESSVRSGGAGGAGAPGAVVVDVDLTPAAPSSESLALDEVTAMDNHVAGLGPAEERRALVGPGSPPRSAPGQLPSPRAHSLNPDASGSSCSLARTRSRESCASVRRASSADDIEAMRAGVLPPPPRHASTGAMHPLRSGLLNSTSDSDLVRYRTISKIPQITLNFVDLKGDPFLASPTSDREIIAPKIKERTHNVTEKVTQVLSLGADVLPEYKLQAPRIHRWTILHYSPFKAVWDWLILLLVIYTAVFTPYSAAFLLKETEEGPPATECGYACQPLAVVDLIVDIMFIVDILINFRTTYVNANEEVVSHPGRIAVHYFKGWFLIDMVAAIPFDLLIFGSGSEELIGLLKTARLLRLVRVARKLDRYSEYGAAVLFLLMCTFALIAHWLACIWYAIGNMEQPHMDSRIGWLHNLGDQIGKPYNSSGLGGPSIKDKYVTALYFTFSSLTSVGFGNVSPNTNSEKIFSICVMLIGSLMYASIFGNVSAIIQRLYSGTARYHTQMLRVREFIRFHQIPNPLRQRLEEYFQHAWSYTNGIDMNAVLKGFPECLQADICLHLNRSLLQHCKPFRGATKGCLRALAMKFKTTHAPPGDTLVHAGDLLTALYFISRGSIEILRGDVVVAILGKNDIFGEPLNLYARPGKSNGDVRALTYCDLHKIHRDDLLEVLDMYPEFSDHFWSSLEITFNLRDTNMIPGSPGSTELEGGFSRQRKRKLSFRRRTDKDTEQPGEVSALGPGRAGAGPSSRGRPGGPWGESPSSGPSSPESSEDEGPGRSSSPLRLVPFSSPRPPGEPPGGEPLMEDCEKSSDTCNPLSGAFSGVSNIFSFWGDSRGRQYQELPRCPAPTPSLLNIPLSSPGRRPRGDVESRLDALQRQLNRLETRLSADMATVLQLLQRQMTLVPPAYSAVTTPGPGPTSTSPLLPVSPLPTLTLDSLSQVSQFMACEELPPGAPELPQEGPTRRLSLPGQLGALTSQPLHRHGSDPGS

The test has as its target human ether-à-go-go-related gene (hERG) potassium channel (human, UniProt Q12809). Briefly: primary screen, population patch clamp on CHO cells stably expressing hERG.
For the compound `CN1CCN(S(=O)(=O)c2ccc(NC(=S)NC(=O)C(C)(C)C)cc2)CC1`, the “hERG current change (%, negative = inhibition) at 1uM” value was -7.68%.
`CCCCc1ccc(NC(=O)CSc2nc(=O)n(CCCN3CCOCC3)c3c2CCC3)cc1`: the “hERG current change (%, negative = inhibition) at 1uM” value is -10.3%.
`C=CCOc1ccc(-c2nc3c(c(=O)[nH]c(=O)n3Cc3ccccc3)n2CCCOC)cc1`: the “hERG current change (%, negative = inhibition) at 1uM” value amounted to 15.8%.
As to `Cc1ccccc1/C=N/NC(=O)c1sccc1C`, the “hERG current change (%, negative = inhibition) at 1uM” value is reported as 13.2%.
With `CCCCN(C)CC(O)Cn1cc(/C=C/C(=O)c2ccc(C)cc2)c2ccccc21` (centres unmarked), the “hERG current change (%, negative = inhibition) at 1uM” value was found to be 6.55%.
Under `COc1ccc(/C(C)=N\NC(=O)c2ccc(-c3ccccc3)cc2)c(F)c1` stands 7.33%; under `S=C(NCc1cccs1)Nc1ccc(Cl)cc1`, 15.2%; under `O=C(Nc1cccc(C(F)(F)F)c1)C(Sc1n[nH]c(=O)[nH]c1=O)c1ccccc1` (centres unmarked), -3.37%.
As to `CC(=O)N1CCN(C(=O)C2(NC(=O)Nc3ccc(C)cc3)CCCCC2)CC1`, the “hERG current change (%, negative = inhibition) at 1uM” value is 16.3%.
In the case of `COc1cc(C(=O)O[C@H]2C/C(C)=C/CC[C@]3(C)O[C@@H]3C(O)C2C(C)C)cc(OC)c1OC` (some centres unmarked), the “hERG current change (%, negative = inhibition) at 1uM” value is listed as 12.4%.
For the compound `COC(=O)[C@@H](Cc1c[nH]c2ccccc12)NC(=O)CCC(=O)c1ccc(F)cc1`, the “hERG current change (%, negative = inhibition) at 1uM” value is 15.7%.
Under `CCOc1ccc(C(C)NC(=O)c2cc(=O)[nH]c3ccccc23)cc1OCC` (centres unmarked) stands 17.2%.
On to `CCc1noc(C)c1C(=O)Nc1nc(-c2cc(C)ccc2C)c(C)s1`, for which the “hERG current change (%, negative = inhibition) at 1uM” value is 7.7%.
Under `COc1cccc(CN2CCNC(=O)C2CC(=O)NCCn2nc(C)cc2C)c1OC` (centres unmarked) stands 14.2%.
With `Nc1ccc2nc(CCCCc3nc4ccccc4[nH]3)[nH]c2c1`, the “hERG current change (%, negative = inhibition) at 1uM” value is on record as 9.89%.
Regarding `COc1cccc(CNc2nc3nc(C)cc(=O)n3[nH]2)c1`, the “hERG current change (%, negative = inhibition) at 1uM” value is -7.15%.
Turning to `c1ccc(NC2=NCCCCS2)cc1`, the “hERG current change (%, negative = inhibition) at 1uM” value is -9.85%.
In the case of `C=CCn1c(SCC(=O)Nc2cc(C)on2)nc2c([nH]c3ccccc32)c1=O`, the “hERG current change (%, negative = inhibition) at 1uM” value stood at 6.04%.
Under `COc1ccc(S(=O)(=O)N(C)C)cc1NC(=O)CSc1nncs1` stands 14%.
Regarding `O=C(NN1CC(C(=O)OCc2ccc(Cl)cc2Cl)CC1=O)c1ccccc1` (centres unmarked), the “hERG current change (%, negative = inhibition) at 1uM” value is 12.6%.
For the compound `CN(C)CCN1CC(O)=C(c2nc3ccccc3s2)C1=N`, the “hERG current change (%, negative = inhibition) at 1uM” value turned out to be 12.8%.
As to `COc1ccc(NC(=O)C(=O)NCCO)cc1Cl`, the “hERG current change (%, negative = inhibition) at 1uM” value was 9.5%.
Consider `CCOc1ccc(NC(=O)CN(C)C(=O)CCCn2c(=O)oc3ccccc32)cc1OCC`, for which the “hERG current change (%, negative = inhibition) at 1uM” value is given as -0.61%.
Under `CN1CCN(c2ccccc2NC(=O)c2cccc([N+](=O)[O-])c2)CC1` stands -67.1%.
Under `COc1ccc(CCN(C)C(=O)c2cc(-c3ccc(C)cc3)nc3ccccc23)cc1OC` stands 9.42%; under `CS(=O)(=O)CCC(C(=O)OCC(=O)c1ccc(Cl)cc1)N1C(=O)c2ccccc2C1=O` (centres unmarked), 1.6%.
On to `O=C(/C=C\c1ccco1)c1ccc(NC(=O)c2ccco2)cc1`, for which the “hERG current change (%, negative = inhibition) at 1uM” value is 14.4%.
Turning to `O=C(O)C1CCCN(S(=O)(=O)c2ccccc2)C1` (centres unmarked), the “hERG current change (%, negative = inhibition) at 1uM” value is 19.3%.
Under `Cc1nc2ccccc2nc(C)c1=NOCc1cccc(F)c1` stands 11.5%; under `CN(CCC#N)C(=O)COC(=O)c1cccnc1Nc1ccccc1F`, 0.35%.
`Cc1ccc(C(=O)OCC(=O)Nc2sc3c(c2C#N)CCCC3)cc1NC(=O)c1ccco1`: the “hERG current change (%, negative = inhibition) at 1uM” value was 5.49%.
Take `CC(=O)CC[C@@H](C)O[C@@H]1OC(C)[C@H](O)CC1O` (some centres unmarked): the “hERG current change (%, negative = inhibition) at 1uM” value was 15.7%.
For `CC(C)CNC(=O)NC1C(NC(=O)NCC(C)C)N(C)C(=O)N1C` (centres unmarked), the “hERG current change (%, negative = inhibition) at 1uM” value is reported as 6.41%.
Take `Cc1cc(-n2c(C)cc(C(=O)CN3C(=O)NC4(CCCCC4)C3=O)c2C)no1`: the “hERG current change (%, negative = inhibition) at 1uM” value is on record as -14.5%.
Turning to `CCOC(=O)c1ccccc1NC(=O)COc1ccccc1`, the “hERG current change (%, negative = inhibition) at 1uM” value is on record as 13.4%.
Under `CC(C)c1nnc(NC(=O)C2CCCN2S(=O)(=O)c2ccc(Cl)cc2)s1` (centres unmarked) stands 10.7%; under `COc1cc(N=c2c([N+](=O)[O-])nn(-c3ccc4c(c3)OCCO4)n2O)cc(OC)c1`, 10.4%.
`COc1ccc(OC)c(NC(=O)C2C3CC4OC(=O)C2C4C3)c1` (centres unmarked): the “hERG current change (%, negative = inhibition) at 1uM” value stood at 8.97%.
On to `Cc1ccc(O)c(C)c1`, for which the “hERG current change (%, negative = inhibition) at 1uM” value turned out to be 14.1%.
On to `CCOC(=O)COn1c(-n2nc(C)cc2C)nc2ccccc2c1=O`, for which the “hERG current change (%, negative = inhibition) at 1uM” value came to 3.53%.
As to `Cc1nnc(SCC(=O)N2CCCc3ccccc32)[nH]c1=O`, the “hERG current change (%, negative = inhibition) at 1uM” value came to 5.54%.
As to `O=[N+]([O-])c1ccc(C(O)CN2CCOCC2)cc1` (centres unmarked), the “hERG current change (%, negative = inhibition) at 1uM” value is recorded as 18.6%.
Under `CCn1c(COc2cccc(C)c2)nnc1SCC(=O)N1CCCC1` stands -8.35%; under `CCCCC(C(=O)N/N=C/c1ccccn1)C(=O)N/N=C/c1ccccn1`, 5.34%.
In the case of `C#CCNC(=O)C1=C[C@@H](C(C)(C)C)C[C@@H](OCc2ccc(CO)cc2)O1`, the “hERG current change (%, negative = inhibition) at 1uM” value is listed as 13.5%.
Under `O=C(CN1CCCC1)Nc1ccc(Br)cc1[N+](=O)[O-]` stands 16.3%.
Turning to `COc1ccccc1OCCCn1cc(C#N)c2ccccc21`, the “hERG current change (%, negative = inhibition) at 1uM” value is reported as 1.66%.
As for `CCOC(=O)c1c(CSc2ccc(C)cc2)oc2ccc(O)cc12`, the “hERG current change (%, negative = inhibition) at 1uM” value is given as 6.7%.
Turning to `Cc1ccc(S(=O)(=O)NCC(C)n2cncn2)cc1` (centres unmarked), the “hERG current change (%, negative = inhibition) at 1uM” value stood at 2.12%.
Turning to `COc1ccc(C(CNC(=S)NCc2ccccc2)N2CCCC2)cc1` (centres unmarked), the “hERG current change (%, negative = inhibition) at 1uM” value is recorded as 4.14%.
Turning to `O=c1[nH]c(=O)n(C2CCCCCC2)c(O)c1C=NCc1cccnc1`, the “hERG current change (%, negative = inhibition) at 1uM” value stood at 11.8%.
Take `NNC(=O)c1cc2ccccc2cc1NS(=O)(=O)c1ccccc1`: the “hERG current change (%, negative = inhibition) at 1uM” value amounted to 12.1%.
Take `Cc1noc(NS(=O)(=O)c2ccc(NC(=O)Cc3ccc([N+](=O)[O-])cc3)cc2)c1C`: the “hERG current change (%, negative = inhibition) at 1uM” value is 15.2%.
For `COc1ccc(-c2ccc(C#N)c(SCC(=O)OCc3ccccc3)n2)cc1OC`, the “hERG current change (%, negative = inhibition) at 1uM” value was found to be 3.84%.
For the compound `COc1ccc(N2CC(C)Cn3c2nc2c3c(=O)n(Cc3ccccc3)c(=O)n2C)c(OC)c1` (centres unmarked), the “hERG current change (%, negative = inhibition) at 1uM” value was determined as 6.21%.
Take `Cc1nc2ccc(NC(=O)c3ccco3)cc2nc1C`: the “hERG current change (%, negative = inhibition) at 1uM” value was found to be 9.94%.
Regarding `Cc1ccc(Cn2cnc3ccccc32)cc1`, the “hERG current change (%, negative = inhibition) at 1uM” value is given as 13%.
`CCC(NC(=O)C1CCCC1)c1ccccc1` (centres unmarked): the “hERG current change (%, negative = inhibition) at 1uM” value was found to be 15.4%.
Take `O=C(Cn1nc(-c2ccccc2)oc1=O)OCC(=O)c1ccc(F)c(F)c1`: the “hERG current change (%, negative = inhibition) at 1uM” value turned out to be 12.5%.
For the compound `O=C(Nc1nnc(S(=O)(=O)N2CCN(c3ccc(F)cc3)CC2)s1)c1ccco1`, the “hERG current change (%, negative = inhibition) at 1uM” value is 12.2%.
Take `Cc1ccc(-c2ccc(S(=O)(=O)N3CCCC3)cc2)cc1`: the “hERG current change (%, negative = inhibition) at 1uM” value worked out at 8.65%.
Under `COC(=O)c1ccc(Oc2nc(NC(C)(C)C)nc(N3CCOCC3)n2)cc1` stands -11.1%; under `CC(Oc1ccc(Cl)cc1Cl)C(=O)Nc1ccncc1` (centres unmarked), 6.32%.
Take `CCOC(=O)C1CCN(C(=O)c2cc3c(-c4ccc(OC)c(OC)c4)nn(C)c3s2)CC1`: the “hERG current change (%, negative = inhibition) at 1uM” value amounted to 6.92%.
On to `Oc1cccc(-c2nc3ccccc3s2)c1`, for which the “hERG current change (%, negative = inhibition) at 1uM” value is listed as 1.25%.
For the compound `COC(=O)c1sccc1N/N=C/c1cccc(Oc2ccccc2)c1`, the “hERG current change (%, negative = inhibition) at 1uM” value is reported as 5.22%.
On to `O=C(NCCN1CCOCC1)c1ccc([N+](=O)[O-])cc1[N+](=O)[O-]`, for which the “hERG current change (%, negative = inhibition) at 1uM” value stood at 6.46%.
For the compound `Cc1cc(Nc2cccc(Br)c2)c2ccccc2n1`, the “hERG current change (%, negative = inhibition) at 1uM” value was -33%.
For `Clc1ccc(-c2cn(-c3ccc(Cl)cc3)c3[n+]2CCCCC3)cc1.[Br-]`, the “hERG current change (%, negative = inhibition) at 1uM” value is -7.83%.
Take `O=C(c1ccccc1)n1c(=O)cc[nH]c1=O`: the “hERG current change (%, negative = inhibition) at 1uM” value turned out to be 8.36%.
As for `O=C1NCCCC1C(=O)N/N=C/c1ccccc1O` (centres unmarked), the “hERG current change (%, negative = inhibition) at 1uM” value was 7.09%.
`COc1ccc(Cl)cc1NC(=O)CSc1nnc(COc2ccccc2)n1N`: the “hERG current change (%, negative = inhibition) at 1uM” value came out at 9.93%.
In the case of `CCCCN1C(=S)NC[C@@H]1Cc1cccc2ccccc12`, the “hERG current change (%, negative = inhibition) at 1uM” value is 10.2%.
With `N#CC1=C(N)Oc2nc(-c3ccccc3)[nH]c2C1c1cccnc1` (centres unmarked), the “hERG current change (%, negative = inhibition) at 1uM” value is given as 10.6%.
Under `O=C(c1ccc(Cl)cc1[N+](=O)[O-])N1CCc2ccccc2C1` stands 14.1%.
Under `CN(C1CCCCC1)C(CNS(=O)(=O)c1ccc(Cl)cc1)c1ccccc1` (centres unmarked) stands 8.84%; under `CC1(c2ccc3c(c2)OCO3)NC(=O)N(CC(=O)Nc2ccc(N3CCOCC3)cc2)C1=O` (centres unmarked), 5.38%; under `Cc1ccccc1-c1oc(C)c(C)[n+]1[O-].Cl`, 2.03%.
With `COc1ccc(/C=N/Nc2nc(-c3cccc(S(=O)(=O)N4CCCC4)c3)cs2)c(OC)c1`, the “hERG current change (%, negative = inhibition) at 1uM” value is -0.714%.
In the case of `O=C(Nc1cccc(C(=O)O)c1)/C(=C\c1ccc2c(c1)OCO2)NC(=O)c1ccco1`, the “hERG current change (%, negative = inhibition) at 1uM” value worked out at 15.1%.
Under `Oc1csc(Cc2nc(-c3ccccc3F)cs2)n1` stands 6.96%.
Under `CCSc1nnc(-c2ccccc2NC(C)=O)c(=O)[nH]1` stands -2.84%; under `Cc1ccc(CNC(=O)c2cccc(S(C)(=O)=O)c2)cc1`, 9.64%; under `CCOc1ccc(N(C(=O)c2cc3ccccc3oc2=O)C2C=CS(=O)(=O)C2)cc1` (centres unmarked), 3.47%.
Take `CCCCNC(=O)c1onc(CSc2ccc(F)cc2)c1C(=O)O`: the “hERG current change (%, negative = inhibition) at 1uM” value was 0.942%.
In the case of `O=C(O)c1cnn(-c2nc(-c3ccc(Cl)c(Cl)c3)cs2)c1C(F)(F)F`, the “hERG current change (%, negative = inhibition) at 1uM” value was found to be 2.76%.
`CCCC1S/C(=N/N=C/c2ccc(C)cc2)N(Cc2ccc(OC)cc2)C1=O` (centres unmarked): the “hERG current change (%, negative = inhibition) at 1uM” value is 12.6%.
With `CCC(=O)Nc1nc(C)c(C(=O)Nc2cccc(Cl)c2)s1`, the “hERG current change (%, negative = inhibition) at 1uM” value came out at 9.35%.
As for `COc1ccc(N(CC(=O)Nc2cccnc2)S(=O)(=O)c2ccccc2)cc1OC`, the “hERG current change (%, negative = inhibition) at 1uM” value is 5.64%.
